# Measured values published in PMC12136788.
# This is one part of the list.
# T1: UNK ZnF1-3 (human, UniProt Q9C0B0 31-174)
# T1 sequence: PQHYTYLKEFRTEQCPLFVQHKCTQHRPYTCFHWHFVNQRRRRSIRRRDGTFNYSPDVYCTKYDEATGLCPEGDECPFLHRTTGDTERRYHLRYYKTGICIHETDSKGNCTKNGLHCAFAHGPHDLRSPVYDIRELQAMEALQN
# B1: chr18:38101097:38101098:-_ENSMUSG00000024454_ENSMUST00000043498|mus_mus|motif|central (ssRNA)
# RNA: GGGAGUUCUACAGUCCGACGAUCGGUGCUGACAUCUGGAUGGAGUGUGAAAUCUGGGGCAAAGUACUCGAAGUAUUCACGGUAGGGAAGUUCCUCACUAAUGGCCUCUUCUACCAGCAGAGAUGUUUCAUAUGUCCAACACCGCAACAGAGGAUUGAGCAUCA
# B2: chrX:7458662:7458663:+_ENSMUSG00000031155_ENSMUST00000033495|mus_mus|FALSE|FALSE (ssRNA)
# RNA: GGGAGUUCUACAGUCCGACGAUCAAGCAGGGCGCCGGAACCAAAAUCAAUGAGUUUAAUGGAACCCCGGCAUAGGUCGAUCAGGAUGUUCUCAUCCUUGAUAUCCCGAUGGACAACUCCACGGGCGUGGCAGUGCUGGACAGCCAACAGAGGAUUGAGCAUCA
# B3: chrX:101152592:101152593:-_ENSMUSG00000056537_ENSMUST00000070705|mus_mus|FALSE|FALSE (ssRNA)
# RNA: GGGAGUUCUACAGUCCGACGAUCUUAAGUCUGCAGUAUGACAUCGUACAUAGGGAAAAAGCUUCUUCCUAAAAGAUAGCUAUUAAUAAUCAAACCAGAUUUCAUGACUGACCUUUCAAGGUCUCUUUCUGCAUUAAACAAGGUCAACAGAGGAUUGAGCAUCA
# B4: chr16:13130331:13130332:+_ENSMUSG00000022545_ENSMUST00000023206|mus_mus|motif|central (ssRNA)
# RNA: GGGAGUUCUACAGUCCGACGAUCCUUUCUAACAUUUACCCACACUUCUUCAGCUUUGCCAUCCUUCUCAAAAGUUUUCCGGUAAAGUCGCAGCAGGAAGGUUUCUGCUCCGGCGGACAGGUAGUCUCUCAGCUGGCAGCACGUCAACAGAGGAUUGAGCAUCA
# B5: 26441060_26448423_608_CDS_ENSG00000175087_ENST00000374271|human|control|control (ssRNA)
# RNA: GGGAGUUCUACAGUCCGACGAUCCAUAUCUCCUCCGUCACAAAAAUCCAUCACAAACCACAAAUAAUAGGCGCUUCUGGGAUCAAAGGCAAUUUCUCCUUUUAAUGAAGUUUCUACAAGCUGUAAAUAAAGGGAAGAAUUAGACAACAGAGGAUUGAGCAUCA
# B6: 156294498_156296098_474_CDS_ENSG00000164114_ENST00000311277|human|control|control (ssRNA)
# RNA: GGGAGUUCUACAGUCCGACGAUCCAAUAGUUUUGAAGGAUUCUUUUCUUCAUCAUCUGAUAUAUGAAAGUCAUUCAUUUUUUUAUUAACUGAAUUUUCAUCUGCUGAAGUGUCAGAAAAAUCACCUAAAGAAACAAUCUCAUCCAACAGAGGAUUGAGCAUCA
# B7: chr1:88750987:88750988:+_ENSMUSG00000053333_ENSMUST00000065694|mus_hu|FALSE|FALSE (ssRNA)
# RNA: GGGAGUUCUACAGUCCGACGAUCCGAUAAAGCUCUUGUGUCUUGUGAAAUGCAGGUGGUCUCAUCUUUUGUAACCGGUGCAUCACCAUCCUCUCUUCCUUUCUCAGAAACACAAACUGAGAGUUUCUUAACACCAUCAACCAGCAACAGAGGAUUGAGCAUCA
# B8: 155408179_155408299_6185_CDS_ENSG00000116539_ENST00000392403|human|control|control (ssRNA)
# RNA: GGGAGUUCUACAGUCCGACGAUCUUCCAAUAGCCAACCUUUUCUCUUCAACCCCUUUUUAUGUUCUGGGUUCAGAUUUACACUCUGAACAACAGCCUCAAUUACAUCUGUAACUGUGUCAGGACUGAGGUGCAGUGCUGCUCCCAACAGAGGAUUGAGCAUCA
# B9: 22956548_22958262_2036_CDS_ENSG00000068793_ENST00000560848|human|control|control (ssRNA)
# RNA: GGGAGUUCUACAGUCCGACGAUCCCUCCUGCCCAUGGUCAGCUCCAGGAAGAACUCUCGGAACCACAGCUGCGAAAGGUCACAGCACUGCUGCAGCGUUUCACUGAAAUUUAUCAAGUGAGUGUAGAAGAAUGACUCUCGAUGCAACAGAGGAUUGAGCAUCA
# B10: chr1:151373778:151373779:+_ENSG00000159377_ENST00000290541|hu_hu|motif|central (ssRNA)
# RNA: GGGAGUUCUACAGUCCGACGAUCAAACCGGUUGUAAGAACGGGCAUCUCGGUAGUACAGCACUCGCAUGCAGCGUUCGGCGGAGUCGCGGGCCUCGGUCUGGCUUAGCACUGGCUGCUUCUCCAGAACUUCUCGCAGCAGAGGCAACAGAGGAUUGAGCAUCA
# B11: 108059836_108059956_598_CDS_ENSG00000149308_ENST00000278612|human|control|control (ssRNA)
# RNA: GGGAGUUCUACAGUCCGACGAUCUACAGUAUCUUGUGACUGUGAGUGGUUGACCACUACAAAAUAUGACCUCGAUGGAUCUGAAAUUUGGCCACUUGGUCGAGUAACCUGUGUACCUGUGGAAGGAGGAGUGGUAAACUGUCCCAACAGAGGAUUGAGCAUCA
# B12: 68058664_68058876_2676_CDS_ENSMUSG00000037685_ENSMUST00000037380|mouse|control|control (ssRNA)
# RNA: GGGAGUUCUACAGUCCGACGAUCUUUGAACUGAGCGAUGGAGUAAUCUGAAGAGUUGGCUGCCUGCAAACCUUCAUUGCCGCUUAUCCCAACACCCACAUGGGCCGUCUGGAUCAUGCUGACGUCAUUUGCUCCAUCCCCGAUCAACAGAGGAUUGAGCAUCA
# B13: chr9:53430067:53430068:-_ENSMUSG00000032030_ENSMUST00000166367|mus_mus|motif|central (ssRNA)
# RNA: GGGAGUUCUACAGUCCGACGAUCGGGUGAGUUGACUUGAGGGUCAUACAACAAAACUUGCCGUUUGAGCUUGGGAAAAGCGGCGGAAGACCAUAAAGUCCUUCUAAGUUCAGCAUCUGGGAGUUCCGUUGCAAGUUUUAGAUUCAACAGAGGAUUGAGCAUCA
# B14: chr10:112361861:112361862:+_ENSG00000108055_ENST00000361804|hu_hu|motif|central (ssRNA)
# RNA: GGGAGUUCUACAGUCCGACGAUCAAUAGCUUCAUAUUUCCGAAGUUCAAGUACAUUCAUCAGUUCCAUGAUUGAUUUGUAACCCCGGUCUAACUCUUCUUGACGCUUUAUUAACUUUUCUUUCUGCUCGGAGAAAUUUACAAACAACAGAGGAUUGAGCAUCA
# B15: chr11:74504092:74504093:-_ENSMUSG00000020745_ENSMUST00000021091|mus_mus|FALSE|FALSE (ssRNA)
# RNA: GGGAGUUCUACAGUCCGACGAUCCUUCCUUUUUAAAAACGGAAUAUGCCUCUUCAUAGCCAUUUGAACGAAGAUAAUCUGCUAUAGCUCGAUUUAGUUCAUCUCGUUGUCUCUGGGACAGCACCAUUUUGGCUGUAAUGUCAACAACAGAGGAUUGAGCAUCA
# B16: 25264311_25266599_1377_CDS_ENSG00000155592_ENST00000328086|human|control|control (ssRNA)
# RNA: GGGAGUUCUACAGUCCGACGAUCGGUAUUCCAUUCAUCAGCAAGGGCAGGAACCCAGGGAGAAGGCCGAGCAUUCUUGGGUAAGGGCCGACGUUCUCGCUUUCGGUUCAGCUGUUCCUGGUGUCCUGAGUGGAGGCUUCCAGGCAACAGAGGAUUGAGCAUCA
# B17: chr11:63961690:63961691:+_ENSG00000168439_ENST00000305218|hu_hu|FALSE|FALSE (ssRNA)
# RNA: GGGAGUUCUACAGUCCGACGAUCCUCGUGUUUUAAGCCCUCCUCAUAGGUUCGCUUGGCUUCUUCAAAGCGGUUUAAGAACUCUAGAGCUGCUGCUUUUCGUGAAUAGCCCUUGCCCCAGUCAGGCUUUAGGUCGACAGUCUUCAACAGAGGAUUGAGCAUCA
# B18: chr5:162943533:162943534:+_ENSG00000038274_ENST00000321757|hu_hu|motif|central (ssRNA)
# RNA: GGGAGUUCUACAGUCCGACGAUCAGGAAUCCUCAAAACAGCAGCUCCUAGAUUGUUCUCCAGGACAGCCUUUUCUCCAUCGGAUUUUGUUUUGCCAUACAAAUUUAGGGGAGCUGGUAUGUCUUCCUCUCUGUAAGGUGGAUUCAACAGAGGAUUGAGCAUCA
# B19: chr3:179287964:179287965:+_ENSG00000136518_ENST00000429709|hu_hu|hu_hu_hu_mus_True|38_58 (ssRNA)
# RNA: GGGAGUUCUACAGUCCGACGAUCCUUGAGUGGUGAGAUGGCCUCCAUGUUCUCCCUGGGCACGCGGAGGGCAUUGGUAUCUAUGUAGUAGGUGGGCCCGCCUUGUUUGCCUUUGUCACCAUCAAUCUCCAUCAUUGUACUUCCCAACAGAGGAUUGAGCAUCA
# B20: chr14:102368134:102368135:+_ENSG00000078304_ENST00000445439|hu_hu|hu_hu_hu_mus_True|48_48 (ssRNA)
# RNA: GGGAGUUCUACAGUCCGACGAUCAAGAGGCUCCAUGAUCUUCACAAACUCUGAUGGUUCAAUUACAUCUAAAAUUUCUUCUAAUUCGUUUAAGAACAUUACUUCUUUUGGACUGUGAGUCUUUGGCCAGUAUUUGAGAAGUGCCAACAGAGGAUUGAGCAUCA
# B21: chr11:77336104:77336105:-_ENSG00000074201_ENST00000525064|hu_mus|hu_hu_hu_mus_False|48_78 (ssRNA)
# RNA: GGGAGUUCUACAGUCCGACGAUCCUCACACAUUGCUGUGAACAUCGCCUCCAAUGCUGAUUUAUCACUGGGCACAAAUCGAAAUUCAGUAAUAGGUUCAACAUCAUCAUUGUCUUCCUCAUCUUCAUCAGAGAGAGGUUCUUUCAACAGAGGAUUGAGCAUCA
# B22: 73911452_73922753_435_3pUTR_ENSMUSG00000051674_ENSMUST00000063882|mouse|control|control (ssRNA)
# RNA: GGGAGUUCUACAGUCCGACGAUCAUCCUCAGUUCCUGCAUAUUCAUAAAACCACUCCAGGCACCGCUUACUGGAGAAAGCCUCUUCUUCAGUCUUUAUUCUAGUUGACUCGUAUUUCCUAUACAUGCUGUCAUGCCUGCUUUUCAACAGAGGAUUGAGCAUCA
# Molecular target: T1, UNK ZnF1-3
# Test: nsRBNS (natural sequence RNA bind-n-seq); RBNS binding buffer (assumed for nsRBNS): 25 mM Tris pH 7.5, 150 mM KCl, 3 mM MgCl2, 0.01% Triton X-100, 500 ug/ml BSA, 20 U/ml SUPERase-In, 4 C; UNK is unkempt and MSI1 is Musashi-1; names of the RNAs are library labels; protein concentration not given here; high values mean tight binding
row,Binder,binding signal [enrichment R]
1,B1,1.45
2,B2,1.04
3,B3,0.696
4,B4,0.512
5,B5,1.68
6,B6,0.616
7,B7,0.774
8,B8,0.788
9,B9,1.04
10,B10,1.2
11,B11,0.754
12,B12,0.781
13,B13,1.31
14,B14,0.602
15,B15,0.694
16,B16,0.751
17,B17,0.566
18,B18,0.928
19,B19,0.625
20,B20,0.787
21,B21,0.826
22,B22,0.68
